Measured values: US20240317663A1, “VITAMIN D3-LIKE COMPOUND” (KANAGAWA UNIVERSITY, priority 2021, published 2024)

Molecular target: VDR ligand binding domain tagged with GST (VDR-LBD(GST)) (Homo sapiens (Human), UniProt P11473)
Assay: Time-resolved fluorescence resonance energy transfer (TR-FRET) vitamin D receptor (VDR) coactivator assay

EC50 [µM]	SMILES
> 5	C[C@H]1/C(=C/C=C2C[C@@H](O)C[C@H](O)C2)CCC[C@@H]1c1ccc(O)cc1 [VIII]
> 5	C[C@H]1/C(=C/C=C2C[C@@H](O)C[C@H](O)C2)CCC[C@@H]1c1ccc(OCC(C)(C)O)cc1 [VII]
